Out of some 310,000 compounds screened, about 2,200 (0.71%) showed an effect of 50% or more. The effect is printed as a negative number. The list shows a part of the results.
The molecules below were run against human ether-à-go-go-related gene (hERG) potassium channel (human, UniProt Q12809) (assay: primary screen, population patch clamp on CHO cells stably expressing hERG).
Sequence of human ether-à-go-go-related gene (hERG) potassium channel (Q12809 whole entry, looked up): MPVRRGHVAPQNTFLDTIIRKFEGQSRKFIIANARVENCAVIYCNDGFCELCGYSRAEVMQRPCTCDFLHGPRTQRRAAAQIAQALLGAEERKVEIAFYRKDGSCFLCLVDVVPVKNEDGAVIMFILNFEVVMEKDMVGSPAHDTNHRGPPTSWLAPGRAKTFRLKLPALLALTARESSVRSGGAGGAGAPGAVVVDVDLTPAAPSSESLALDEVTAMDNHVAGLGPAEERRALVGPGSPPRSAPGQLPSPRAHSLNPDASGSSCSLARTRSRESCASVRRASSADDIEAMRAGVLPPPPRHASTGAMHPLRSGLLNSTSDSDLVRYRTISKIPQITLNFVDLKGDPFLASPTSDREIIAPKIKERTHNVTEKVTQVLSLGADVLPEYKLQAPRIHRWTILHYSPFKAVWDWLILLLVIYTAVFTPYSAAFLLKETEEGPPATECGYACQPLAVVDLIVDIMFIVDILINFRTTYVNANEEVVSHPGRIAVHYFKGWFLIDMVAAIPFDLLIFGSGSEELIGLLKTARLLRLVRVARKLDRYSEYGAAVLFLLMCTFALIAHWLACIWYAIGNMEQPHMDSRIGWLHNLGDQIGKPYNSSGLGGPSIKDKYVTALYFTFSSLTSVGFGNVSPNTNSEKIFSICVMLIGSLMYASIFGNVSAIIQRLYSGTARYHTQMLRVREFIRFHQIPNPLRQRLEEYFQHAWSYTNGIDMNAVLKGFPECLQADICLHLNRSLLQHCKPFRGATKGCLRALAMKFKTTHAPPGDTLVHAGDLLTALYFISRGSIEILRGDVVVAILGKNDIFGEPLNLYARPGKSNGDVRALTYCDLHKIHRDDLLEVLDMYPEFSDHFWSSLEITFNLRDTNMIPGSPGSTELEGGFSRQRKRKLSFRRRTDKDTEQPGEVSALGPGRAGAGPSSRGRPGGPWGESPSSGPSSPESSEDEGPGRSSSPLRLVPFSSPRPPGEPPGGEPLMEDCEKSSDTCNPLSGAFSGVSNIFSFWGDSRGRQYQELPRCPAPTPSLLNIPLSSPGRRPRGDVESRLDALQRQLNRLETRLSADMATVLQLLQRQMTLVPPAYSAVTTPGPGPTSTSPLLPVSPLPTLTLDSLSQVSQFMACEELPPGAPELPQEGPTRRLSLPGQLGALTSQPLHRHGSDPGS

Row | Compound | hERG current change (%, negative = inhibition) at 1uM
1 | CC(Nc1ccc2c(c1)OCCO2)C(=O)N1c2ccccc2CC1C (stereo not drawn) | 5.23%
2 | COC(=O)c1cc(NS(=O)(=O)c2ccc(C(C)C)cc2)ccc1N1CCOCC1 | 8.75%
3 | O=C(NNC(=O)c1sc2ccccc2c1Cl)Nc1ccc(Cl)cc1 | 2.48%
4 | Nn1c(SCC(=O)Nc2ccccc2F)nnc1-c1cccs1 | -37.4%
5 | O=C(c1ccc([N+](=O)[O-])cc1)N1CCN(C(=O)c2ccco2)CC1 | -8.23%
6 | CCCc1c(C)c2ccc(OCC(C)=O)cc2oc1=O | -1.77%
7 | CC(Sc1nnc(-c2ccc(OC(F)F)cc2)n1N)C(=O)NCC1CCCO1 (stereo not drawn) | 7.86%
8 | O=c1[nH]c(-c2ccccn2)nc2ccccc12 | 5.94%
9 | CCOC(=O)c1sc(NC(=O)CSc2nnc(C)s2)c(C(=O)OCC)c1C | -5.96%
10 | O=C(Nc1ccc(S(=O)(=O)Nc2ncccn2)cc1)c1cccc(Br)c1 | 11.8%
11 | COc1ccc([N+](=O)[O-])cc1NCc1ccccc1C | -5.52%
12 | Cc1ccc(NC(=O)CSc2nc3ccccc3c3nc4ccccc4n23)cc1 | 6.56%
13 | CN(C)c1ccc(-c2noc(C3CCN(S(=O)(=O)c4cccc(Cl)c4)CC3)n2)cc1 | 14.5%
14 | CCCc1nnc(NC(=O)CCC(=O)N2CCN(Cc3cc(F)ccc3OC)CC2)s1 | 16.7%
15 | COc1cc([C@@H]2c3cc4c(cc3[C@@H](OC)[C@H]3COC(=O)[C@H]23)OCO4)cc(OC)c1O | 12.2%
16 | O=C(Nc1ccc(F)cc1F)c1cccnc1Oc1cccc(C(F)(F)F)c1 | 6.26%
17 | CCN(CC)CC(C)OC(=O)COc1ccc(OC)cc1.Cl (stereo not drawn) | 10.2%
18 | CCOc1ccc(-c2c(C)n(-c3ccc(OCC)cc3)c3[n+]2CCCCC3)cc1.[O-][Cl+3]([O-])([O-])[O-] | -50.8%
19 | CCC(C)(NC=O)C(=O)Nc1c(C)cccc1C (stereo not drawn) | 11.5%
20 | CCSc1nnc(NC(=O)C2Cc3ccccc3CN2S(=O)(=O)CC)s1 (stereo not drawn) | 11.3%
21 | O=C1/C(=C/c2ccc(O)cc2)SC(=S)N1Cc1cccnc1 | 15.1%
22 | O=C(c1cccn2c(=O)c3ccccc3nc12)N1CCN(c2ccccn2)CC1 | -33.3%

Row | Compound | hERG current change (%, negative = inhibition) at 1uM
23 | O=C(NC1CCCCC1)C1CN(S(=O)(=O)c2ccccc2)CCN1S(=O)(=O)c1ccccc1 (stereo not drawn) | -2.07%
24 | CN(Cc1ccccc1)C(=O)CN1C(=O)c2ccc([N+](=O)[O-])cc2C1=O | 2.31%
25 | O=C(N/N=C/c1c[nH]c2ccccc12)c1ccn(Cc2ccc(Cl)cc2)n1 | 13%
26 | Nc1c(N(CCO)C(=O)/C=C/c2ccco2)c(=O)[nH]c(=O)n1Cc1ccccc1 | 12.4%
27 | Cc1cccc(C)c1Nc1nnc(SCc2cc([N+](=O)[O-])cc3c2OCOC3)s1 | 5.81%
28 | Cn1c(=O)c(C(=O)Nc2ncccc2O)c(O)c2ccccc21 | 5.05%
29 | COc1ccc(C(=O)NCCCN2CCCC2=O)cc1 | 9.52%
30 | Cc1scc(C(=O)N/N=C/c2ccc([N+](=O)[O-])o2)c1C | 7.51%
31 | Cc1ccccc1NC(=O)N1CCCC1C(=O)NCc1cccs1 (stereo not drawn) | -3.89%
32 | CC(=O)Nc1ccc(N2C(C(C)=O)=NN(c3ccccc3)C2c2cccs2)cc1 (stereo not drawn) | 15.6%
33 | COc1ccc(NC(=O)N2CCC3(CC2)OCCO3)cc1OC | 12.3%
34 | Cc1csc(NC(=O)c2ccc(S(=O)(=O)N3CCCC3)cc2)n1 | 5.64%
35 | COc1ccc(-n2c(SCC(=O)O)nc3sc4c(c3c2=O)CCC4)cc1 | 17.6%
36 | CCNS(=O)(=O)c1ccc(NC(=O)Nc2cccc(OC)c2)cc1 | 13.1%
37 | CC1=CC(C)(C)Nc2ccc(OC(=O)CCN3C(=O)c4ccccc4C3=O)cc21 | 5.52%
38 | COc1cc(C(=O)OC(C)CN2CCN(C)CC2)cc(OC)c1OC.Cl (stereo not drawn) | 3.84%
39 | Cc1ccc(F)c(CNC(=O)C2CCC(=O)N(CCCN3CCCC3=O)C2)c1F (stereo not drawn) | 12.8%
40 | C=CCn1c(CCNC(=O)c2cccs2)nnc1SCC(=O)c1ccc(Cl)cc1 | -10%
41 | COc1ccc(CN(C(=O)CNC(=O)c2ccco2)C(C(=O)NCC2CCCO2)c2ccccc2)cc1 (stereo not drawn) | 3.25%
42 | CCOC(=O)c1sc(NC(=O)C2CC(=O)N(c3ccccc3C)C2)nc1C (stereo not drawn) | 8.08%
43 | N#CCC(=O)Nc1ccc(C(F)(F)F)cc1N1CCOCC1 | 4.03%
44 | N=c1c2c3c(sc2ncn1Cc1ccco1)CCCCC3 | 2.19%

Row | Compound | hERG current change (%, negative = inhibition) at 1uM
45 | COc1cccc(CN2CCN(C(=O)C3CCC(=O)N(C4CCCC4)C3)CC2)c1 (stereo not drawn) | 5.03%
46 | CC(C)(C)OC(=O)NCC1CCN(S(=O)(=O)Cc2ccccc2)CC1 | 16.1%
47 | Cc1ccc(S(=O)(=O)NCCCCCC(=O)Nc2c(C)n(C)n(-c3ccccc3)c2=O)cc1 | 27.4%
48 | Cc1snc(S(=O)(=O)/C(C#N)=N\Nc2ccccc2)c1C#N | 11%
49 | CCOc1ccc(CN(C)CC(=O)NCc2ccc(F)cc2)cc1 | -78.6%
50 | CCc1ccccc1N1C(=O)[C@@H]2Cc3ccccc3CN2C1=O | 6.47%
51 | Cc1cc2nc(N)sc2cc1[N+](=O)[O-] | 3.97%
52 | O=C1CC2(CCCC2)Oc2ccccc21 | 9.1%
53 | CCOC(=O)c1[nH]c2ccccc2c1NC(=O)c1ccc(S(=O)(=O)N2CCCCC2)cc1 | 8.49%
54 | COc1cccc(-c2nc(C(=O)NCC3CCCO3)cc3c2[nH]c2ccccc23)c1 (stereo not drawn) | -18.9%
55 | Cc1ccc(S(=O)(=O)NC(C)(C)CSc2ccccn2)cc1 | 2.69%
56 | COc1ccc(CNC(=O)Cn2ccc3cc(S(=O)(=O)N4CCCC4)ccc32)cc1OC | 8.33%
57 | Cc1ccc(C2C(C#N)=C(N)OC3=C2C(=O)CC(C)(C)C3)s1 (stereo not drawn) | 10.8%
58 | O=C(Nc1ccc(F)cc1)c1cccc(N2C(=O)c3ccccc3C2=O)c1 | 7.95%
59 | COc1ccc(-c2cc(C(=O)NC3CCCCC3)no2)cc1OC | 14.4%
60 | Cc1ccc(N2CC(C(=O)OCC(=O)Nc3ccccc3F)CC2=O)cc1 (stereo not drawn) | 15.6%
61 | COc1ccc(CN2CCNC(=O)C2CC(=O)O)cc1OC (stereo not drawn) | 17.6%
62 | Cc1ccc(-n2nc3cc(Cl)c(NC(=O)c4ccco4)cc3n2)cc1 | 9.71%
63 | Fc1ccc(C2CC(c3ccc(F)cc3)n3ncnc3N2)cc1 (stereo not drawn) | -9.77%
64 | CCn1nc(C(=O)N2CCN(Cc3nc4ccccc4s3)CC2)c2ccccc2c1=O | -38.6%
65 | CC1CN(S(=O)(=O)c2ccc(C(=O)N3c4ccccc4CC3C)cc2)CC(C)O1 (stereo not drawn) | 7.9%
66 | Cc1cccc(NC(=O)c2nc[nH]c2C(=O)N[C@@H](C)c2ccccc2)c1 | 13.3%

Row | Compound | hERG current change (%, negative = inhibition) at 1uM
67 | COc1ccc(C(=O)C2CCCN(Cc3cnc(C)s3)C2)cc1OC (stereo not drawn) | 2.68%
68 | CC(=O)c1cccc(NC(=S)Nc2cccc3ccccc23)c1 | 10.6%
69 | CCN1C(=O)C(CC(=O)Nc2ccc(F)cc2)N(Cc2cccs2)C1=S (stereo not drawn) | -10.5%
70 | COC(=O)c1cc(Sc2c(Cl)cccc2Cl)ccn1 | 3.11%
71 | CCOc1ccccc1C(=O)n1nc2nc(C)cc(C)c2c1N | 8.47%
72 | c1ccc(-c2nc3cnccn3c2Nc2ccc3c(c2)OCCO3)cc1 | 8.75%
73 | Cc1ccc(C)c(SCC(=O)N(C)CC(=O)Nc2ccc(N3CCOCC3)cc2)c1 | 6.79%
74 | CCS(=O)(=O)n1nc(-c2ccc(Cl)cc2)nc1SC | 16.3%
75 | Nc1ccccc1C(=O)NNC(=O)C(=O)/C=C(\O)c1ccccc1 | 6.8%
76 | O=P1(c2ccccc2)C=Cn2c1cc1c2CCCC1 (stereo not drawn) | -10.9%
77 | CC(=O)Nc1ccc(S(=O)(=O)NCCNc2ccccc2[N+](=O)[O-])cc1 | 6.95%
78 | Cc1ccc(-c2nc(C#N)c(NCCCn3ccnc3)o2)cc1 | -8.18%
79 | CCCCCC1CC(CC(C)C(=O)Nc2nncs2)C(=O)O1 (stereo not drawn) | -8.77%
80 | Cc1occc1C(=O)N1CCCC(N2CCN(c3cccc(C(F)(F)F)c3)CC2)C1 (stereo not drawn) | -0.369%
81 | CC(/C=C/c1ccccc1F)=N\NC(=O)C(C)C | 2.29%
82 | C[C@H]1CC[C@H]2C(=O)N3[C@H](c4cccc(N5CCCC5=O)c4)[C@@H](C)CC[C@H]3C(=O)N2[C@@H]1c1cccc(N2CCCC2=O)c1 | -25.1%
83 | CC1CCCC(C)N1C(=O)COC(=O)CCc1nc2ccccc2c(=O)[nH]1 (stereo not drawn) | 8.05%
84 | Cc1cc2c(c(=O)n1Cc1ccco1)C(c1ccccc1)C(C#N)=C(N)O2 (stereo not drawn) | 13.2%
85 | O=C1CSC(c2ccccc2)N1Cc1ccccc1 (stereo not drawn) | 17.2%
86 | Cc1cc(CNC(=O)CCc2nnc(CCCCc3ccccc3)o2)nn1C | 22.1%
87 | COc1ccc(C(=O)Nc2cc(C)c(NC(=O)c3ccccn3)cn2)cc1 | 9.17%

From article PMC4336329 (PLoS ONE, 2015)
